PubChem BioAssay AID504332 (National Center for Advancing Translational Sciences (NCATS), 2011)
Values joined by “and” are separate entries in the source; they are usually repeats but may differ in a detail not shown here. Identical values can stand only once. In all, about 350,000 compounds went through this assay and about 31,000 (8.9%) were called active. The shares of active, inactive and inconclusive entries below differ from those in the screen. Calls follow the shape of the dose curve; as a rule, active = well fitted inhibition curve with a large enough effect; inconclusive = small, poorly fitted or top-dose-only effect; inactive = no such curve, though single readings can be large or run the other way. Where the call is inconclusive, the potency comes from a doubtful curve fit. A structure can be active in one record and inactive in another.

What follows are compounds tested against Histone-lysine N-methyltransferase EHMT2 (Homo sapiens) (UniProt Q96KQ7) (assay: qHTS Assay for Inhibitors of Histone Lysine Methyltransferase G9a). Details: G9a H3K9 monomethylation, AlphaScreen, 2 h; activity, negative = inhibition: at 59 µM (top of the series) unless noted.
Chain of UniProt Q96KQ7 (Q96KQ7 whole entry, looked up): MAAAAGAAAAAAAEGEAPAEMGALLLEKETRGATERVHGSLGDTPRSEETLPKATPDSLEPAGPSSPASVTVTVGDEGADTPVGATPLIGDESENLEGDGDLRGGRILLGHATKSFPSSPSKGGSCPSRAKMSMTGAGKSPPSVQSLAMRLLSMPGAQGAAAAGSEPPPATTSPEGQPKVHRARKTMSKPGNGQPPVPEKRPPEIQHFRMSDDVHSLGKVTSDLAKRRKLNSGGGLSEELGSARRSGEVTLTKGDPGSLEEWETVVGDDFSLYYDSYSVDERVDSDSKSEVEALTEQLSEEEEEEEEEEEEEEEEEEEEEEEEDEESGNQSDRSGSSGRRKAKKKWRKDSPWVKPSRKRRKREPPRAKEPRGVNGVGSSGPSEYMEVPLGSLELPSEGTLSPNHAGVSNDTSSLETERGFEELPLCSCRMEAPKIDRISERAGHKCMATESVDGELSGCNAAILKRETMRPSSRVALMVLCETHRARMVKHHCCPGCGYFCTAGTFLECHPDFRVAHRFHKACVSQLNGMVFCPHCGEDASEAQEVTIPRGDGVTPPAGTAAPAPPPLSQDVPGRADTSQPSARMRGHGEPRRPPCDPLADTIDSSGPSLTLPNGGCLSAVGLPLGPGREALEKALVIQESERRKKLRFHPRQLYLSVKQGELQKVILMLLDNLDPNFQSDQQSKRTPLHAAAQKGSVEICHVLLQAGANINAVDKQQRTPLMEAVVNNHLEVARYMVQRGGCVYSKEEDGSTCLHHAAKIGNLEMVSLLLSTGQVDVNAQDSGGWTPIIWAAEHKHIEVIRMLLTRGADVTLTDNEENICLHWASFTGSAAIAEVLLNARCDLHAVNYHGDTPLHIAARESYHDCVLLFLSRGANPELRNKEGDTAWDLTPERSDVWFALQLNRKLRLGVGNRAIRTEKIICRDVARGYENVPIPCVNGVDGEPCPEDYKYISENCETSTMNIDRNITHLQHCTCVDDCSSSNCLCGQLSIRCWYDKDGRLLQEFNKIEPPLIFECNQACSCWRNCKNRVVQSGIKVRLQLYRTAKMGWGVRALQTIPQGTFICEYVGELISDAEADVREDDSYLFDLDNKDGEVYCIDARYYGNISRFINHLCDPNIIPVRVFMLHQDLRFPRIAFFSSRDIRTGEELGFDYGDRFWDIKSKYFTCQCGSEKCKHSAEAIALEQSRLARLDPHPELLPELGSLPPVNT
Outline: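 G9a (20 nM) was preincubated 15 min with compound, then reacted 2 h at room temperature with 500 nM biotin-H3K9 peptide and 20 µM SAM. Monomethyl-H3K9 detected by AlphaScreen using anti-H3K9me1 antibody.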
% is scaled to controls: 0 for no effect and ±100 for the full control effect; potency is read from the fitted curve at half-maximal effect; tags tell the direction and shape of the fitted curve.
Also: nearly all actives have a fitted effect of over 75% in size.

Row | SMILES | Potency | activity, negative = inhibition
1 | CCOc1ccccc1NC(=O)C1C2C=CC(O2)C1C(=O)O (stereo not given) | inconclusive: 2 µM [inhibitor, partial curve, poor fit] | 
2 | COc1ccc(C2CC(c3ccccc3)=NN2C(=O)COC(=O)c2ccc(Cl)nc2)cc1 (stereo not given) | inconclusive: 70.8 µM [inhibitor, single point] | 
3 | Cc1ccc(S(=O)(=O)/N=S(/c2ccccc2)C(C)C)cc1 (stereo not given) | active: 4.47 µM | 
4 | CCc1ccc(Nc2ncc3c(n2)CC(c2ccco2)CC3=O)cc1 (stereo not given) | inconclusive: 0.891 µM [inhibitor, full curve, poor fit] | 
5 | COc1ccc([N+](=O)[O-])cc1-c1[nH]c(-c2ccc(C(=O)O)cc2)nc1-c1ccccc1 | inconclusive: 70.8 µM [inhibitor, single point] | 
6 | CCCCN(CCCNC(=O)c1ccc(Sc2ccc(Cl)cc2)c(NC(C)=O)c1)c1ccccc1 | inconclusive: 25.1 µM [inhibitor, partial curve, poor fit] | 
7 | Cc1ccc(NC(=O)CSC2=Nc3ccccc3C3=NC(Cc4ccccc4)C(=O)N23)cc1C (stereo not given) |  | inactive: -6.12%
8 | COc1cccc(C(=O)OCC(=O)NC(=O)NC2CCCC2)c1O | inconclusive: 89.1 µM [inhibitor, single point] | 
9 | CCc1ccc(CNC(=O)c2cc3c(=O)n(CC)c4ccccc4c3s2)cc1 |  | inactive: -20.7%
10 | Cc1cccc(Nc2c(-c3cccs3)nc3nc(C)cc(C)n23)c1 |  | inactive: 9.41%
11 | COC(=O)Nc1ccc(S(=O)(=O)N2CCN(CCN3C(=O)C4C5C=CC(C5)C4C3=O)CC2)cc1 (stereo not given) | inconclusive: 56.2 µM [inhibitor, partial curve, poor fit] | 
12 | COCCCNC(=O)CN(c1ccc(F)cc1)S(=O)(=O)c1ccc2c(c1)OCCO2 |  | inactive: 26.4% [at 102 µM]
13 | CC1CCC(NC(=O)c2ccc3c(c2)N(Cc2ccccc2)C(=O)c2ccccc2S3(=O)=O)CC1 (stereo not given) |  | inactive: -37.5%
14 | COc1cccc(/C=N/n2c(COc3ccccc3)n[nH]c2=S)c1OC | active: 8.91 µM | 
15 | CCN1CCC[C@H]1CNC(=O)c1c(O)c(Cl)cc(Cl)c1OC | inactive and active: 8.91 µM | 
16 | CCOC(=O)c1c(C)[nH]c(C)c1C(=O)COC(=O)c1ccc(O)cc1 | inconclusive: 50.1 µM [inhibitor, partial curve, poor fit] | 
17 | CC(C)C(NC(=O)c1ccco1)C(=O)OCc1cc([N+](=O)[O-])cc2c1OCOC2 (stereo not given) | inconclusive: 0.316 µM [inhibitor, partial curve, poor fit] | 
18 | Cc1cc(C)cc(OCC(=O)Nc2nc(-c3cccnc3)cs2)c1 | active: 10 µM | 
19 | C#CCOCCOCCOCCNc1nc(N2CCN(C(=O)Cn3cc(CCCN=C(N)N)nn3)CC2)nc(N2CCN(C(=O)Cn3cc(CCCN=C(N)N)nn3)CC2)n1 | active: 25.1 µM | 
20 | COc1ccc(/C=C2\SC(=O)N(CCNC(=O)Cn3cnnn3)C2=O)cc1 | inconclusive: 3.55 µM [inhibitor, single point] | 
21 | COc1ccc(C(CNC(=O)CSc2ccccc2C)N(C)C)cc1 (stereo not given) |  | inactive: -4.86% [at 102 µM]
22 | CC(C)NC(=O)c1ccc(C(C)C)cc1 |  | inactive: 21.6% [at 102 µM]
23 | CCOc1ccccc1NC(=O)C(c1ccccc1)N1CCN(CC(=O)N2CCOCC2)CC1 (stereo not given) | inconclusive: 28.2 µM [inhibitor, single point] | 

Row | SMILES | Potency | activity, negative = inhibition
24 | COc1cccc(C(c2nnnn2Cc2ccccc2)N2CCN(C(=O)c3ccco3)CC2)c1OC (stereo not given) |  | inconclusive: -66.3% [inhibitor]
25 | COc1ccccc1NC(=O)C(C)OC(=O)c1ccc(-n2cnnn2)cc1 (stereo not given) |  | inactive: -8.77% [at 102 µM]
26 | Cc1c(C(=O)NCc2ccco2)oc2c(F)cccc12 |  | inactive: 6.81% [at 12.7 µM]
27 | CC(=O)c1ccc(OCCNS(=O)(=O)c2ccc(-n3cnnn3)c(C)c2)cc1 | inconclusive: 25.1 µM [inhibitor, partial curve, poor fit] | 
28 | Cc1ccc(NC(=O)CS(=O)CC(=O)NCCCN(C)c2ccccc2)cc1 (stereo not given) | active: 39.8 µM | 
29 | CC(=O)c1ccc(OCCCC(=O)NC2CCCCC2C)cc1 (stereo not given) |  | inactive: -4.71% [at 102 µM]
30 | CCN(CCCNC(=O)CCn1c(=O)[nH]c2ccsc2c1=O)c1ccccc1 | inconclusive: 50.1 µM [inhibitor, partial curve, poor fit] | 
31 | Cc1cc(/C=N/Nc2nc(N3CCOCC3)nc(N3CCOCC3)n2)c(C)n1-c1ccccc1 |  | inactive: -47.8% [at 102 µM]
32 | NS(=O)(=O)c1ccc(CCNC(=O)COC(=O)C2CCC2)cc1 |  | inactive: 40.7% [at 102 µM]
33 | Cc1ccc(C(C)C)c(OCCCNCc2cccnc2)c1 | active: 50.1 µM | 
34 | Nc1cc(S(=O)(=O)Nc2ccccc2Cl)ccc1N1CCOCC1 | inconclusive: 44.7 µM [inhibitor, partial curve, poor fit] | 
35 | Cc1ccc(NC(=O)CN(C)CC(=O)Nc2ccc(F)c(Cl)c2)cc1 | active: 31.6 µM | 
36 | CCN1C(=O)c2cccc3c(NC(=O)C(C)(C)C)ccc1c23 | inconclusive: 3.16 µM [inhibitor, partial curve, poor fit] | 
37 | Cc1ccc(C(=O)O)cc1-n1c(C)ccc1-c1ccccc1 | inconclusive: 25.1 µM [inhibitor, partial curve, poor fit] | 
38 | CCOC(=O)c1c(CN2CCN(c3ccccc3)CC2)oc2ccc(O)cc12 | active: 39.8 µM | 
39 | NS(=O)(=O)c1ccc(CCNC(=O)CSc2ccc([N+](=O)[O-])cc2)cc1 | inconclusive: 39.8 µM [inhibitor, partial curve, poor fit] | 
40 | C=CCOc1cccc(C2C(C(=O)c3ccco3)=C(O)C(=O)N2CCN(CC)CC)c1 (stereo not given) | inconclusive: 50.1 µM [inhibitor, partial curve, poor fit] | 
41 | O=C(CSc1nncn2c1cc1occc12)Nc1ccccc1C(F)(F)F |  | inactive: -1.01%
42 | CCc1ccccc1NC(=O)CN(c1cccc(C)c1C)S(C)(=O)=O | inconclusive: 6.31 µM [inhibitor, single point] | 
43 | CCc1cccc(NC(=O)CCNS(=O)(=O)c2ccc3c(c2)oc(=O)n3C)c1 |  | inactive: 45.8% [at 102 µM]
44 | COC(=O)c1oc2ccc(OC)cc2c1N | inconclusive: 35.5 µM [inhibitor, single point] | 
45 | Cc1nn(C)c(C)c1NC(=O)c1ccc(Br)o1 | inconclusive: 44.7 µM [inhibitor, partial curve, poor fit] | 
